Assay results: the supplement of paper PMC11417369
The other results are listed elsewhere or left out.

Tested on: PF3D7_0420300 AP2 domain 1 (GST-tagged)
Test: gcPBM binding intensity (ln(normalized median fluorescence intensity)); higher = stronger DNA binding
Summary of the method: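 GST-tagged P. falciparum DNA-binding domains produced in E. coli were incubated for 1 h on an Agilent 4 × 180k array of primer-extended double-stranded 36-bp intergenic genomic probes with negative controls. Binding intensity is the highest Masliner-normalised natural-log median intensity across replicate spots of either probe orientation, with bound protein detected by Alexa488 anti-GST antibody at 488 nm.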

In order of rising “gcPBM binding intensity (ln)” value:
1. TTTTTTATAGTACATTACCAAAAAAAAAAAAAAAAA [GTGCAC_negctrl_site549]  8.32
2. AAATGTTGAGCAGTACAAAAAAAAAAAAAAAAAAAA [GTGCAC_negctrl_site518]  8.45
3. TTTTTTTTTTAATTGGGTACATATATAATTTAAGAA [XGTACX_site2732]  8.76
4. ATTAATAAAAAATTTTAAAAAATAAATAAAATAAAA [TGCATGCA_negctrl_site113]  8.83
5. TTTTTTTTTTTTTTCTTACAATTTATTGAACAAATG [XGTACX_negctrl_site515]  8.84
6. TATATATTATAAAATTGTACATATATTAAATTTTTT [XGTACX_site5852]  8.84
7. GAAGTTTTTTAAAGATGTACTTTTTAAAAATAATCT [XGTACX_site263]  8.85
8. TAAAATTTGTACATAGTGCAATTTTTTTTTTTTTTT  8.9
9. AATAAATAAATATATATATATATATATATATATATA [CACACA_negctrl_site365]  8.96
10. ATATATATTTAACAATGTACTTATTCAGAGAATAAT [XGTACX_site574]  8.99
11. TTTTGTTGAAAAGTAAGATATTCCAACATGTTTTTA [CACACA_negctrl_site391]  9.03
12. TTTTATGAAAAGTATTGTACGTATAATTTATATGTA [XGTACX_site1639]  9.04
13. TAATGTATTATATTTTGTTTTCTTCCACCAAAAAAA [XGTACX_negctrl_site64]  9.04
14. TATTTATTTAAAAATTGTACGTAGGATTATACACTT [XGTACX_site286]  9.07
15. TACTTGTTATTAACATGTACAAAAAAAAAAAAAATT [XGTACX_site1338]  9.08
16. ATATAAATATTATAATGTACATATAATATATTTATT [XGTACX_site5212]  9.09
17. TGTGTAAGATCTTGGATGATGATAAGAATCTACTAG [CACACA_negctrl_site1167]  9.11
18. ATTATATAGCTAAAAAAAATAAATTAAAAATATTAA [TGCATGCA_negctrl_site505]  9.11
19. ATAGGATGCATATGAGTGCATTCTGTGTTGTTATAA  9.12
20. TCCATATATGCCTTATGTACATATACCAAATTAACC [XGTACX_site6513]  9.13
21. TATATATATATATATACATGCATACATATACATACA [TGCATGCA_site897]  9.14
22. TTTATTTTTATTTAAAGTACATATCCATTTATTCCT [XGTACX_site1914]  9.15
23. AGATTAAAATATATACGTACATATTATTAATTAATA [XGTACX_site3487]  9.15
24. TTTGGCTAGTTAGGCCGTACATGTAAATAATATATA [XGTACX_site1138]  9.16
25. TTGGAAAAAGTGAAATGTACATATATATTTATTATT [XGTACX_site6946]  9.16
26. GACACAAAAAAATAATAATAATAATAATAATAAATA [XGTACX_negctrl_site145]  9.18
27. AAAGGATTTATACTAGTGCAAAAATATAAAAATATA  9.18
28. TATCAAAATTGTAATTGTACTTGTAAGTGGATATAT [XGTACX_site5949]  9.2
29. AGTGATTATTAATAATGTACATATCTATAAATATAT [XGTACX_site4734]  9.23
30. TTTTATCATCTTTTTACATTATGTATAAATATTTTC [CACACA_negctrl_site206]  9.23
31. ATTTATACTTATGTATGTACATATATACATATGTAT [XGTACX_site3979]  9.24
32. TATGTATGTGCTTGTGCGCACCGATAATATAGCCAA  9.24
33. AAGTTGAAATAATGTGCACACATTTTTTTTTTTTTT [CACACA_site3368]  9.25
34. ATATTTACAAGTAATAGTACAGTTAATTATATAAAA [XGTACX_site4856]  9.25
35. TAGTTTTTTATATATTGTACAAATAATATATGATAT [XGTACX_site4220]  9.25
36. ATATATTGCACTTTTTGTACATAATGAAAAATTTTT [XGTACX_site8223]  9.25
37. TTTGTTTTTAATTTCGCACACACCTTGTGGAAAAAA [CACACA_site577]  9.26
38. TCACCATATAAACGTGCACACTACAAAAATATATAA [CACACA_site5413]  9.26
39. ACCTTAATAAAAAAAAGTACAAACATGTTCAAATTG [XGTACX_site1556]  9.28
40. ATAATAATTAACCTATGTACATAGGAAAGTCATAAA [XGTACX_site4387]  9.29
41. ATATAATATATTTTTGAACACACAATATATATATAT [CACACA_site9368]  9.31
42. AAATATTTTATACTTGCACACAAAATATATTAAAAT [CACACA_site8606]  9.32
43. AAAATATTTTTATAATGTACATATAGTTGTATTTGT [XGTACX_site8724]  9.33
44. CCCTTAATATAAAGCACACATATATATAATATATAT [CACACA_site4439]  9.33
45. CTTTTATTTTATTTTAGTACGCAACATTCTCTATAT [XGTACX_site7279]  9.33
46. ATCTCTGTATGTTAGACACACATATTTTAATATGTT [CACACA_site4244]  9.34
47. AAAAGAACAATGAAGTGTACTAATAATTATTTATGT [XGTACX_site6649]  9.35
48. AAGATACCAATGAAATGTACATATATATAAATATAA [XGTACX_site2135]  9.35
49. ACACATAAATGAATAAATAAATAAATATAAATATAA [CACACA_negctrl_site1784]  9.41
50. TTTTTTTTTACTTGTTGTACTTTTTCAAGGTATTGT [XGTACX_site7778]  9.42
51. ATAATAAAATAACTAGTGCATATTCAAAGGATTCAG  9.44
52. CATTTATATAAAAGAACACACATATAAAATATTATT [CACACA_site3601]  9.44
53. TATATATTTCATCCTTGTACACATTTGTGTTTACAT [XGTACX_site1132]  9.45
54. TGCTATAATTTATATACACACAAATATATACGCATA [CACACA_site4096]  9.46
55. AGCAAAACATAAAATAGTACACATTTAACAAAAAAA [XGTACX_site2921]  9.48
56. AAACAATATTCTCAAGTGCAAAAAGAAAAAAGAAAT  9.49
57. AATTCGTACCTCATTTGTACATATATATATATATAT [XGTACX_site5513]  9.49
58. CCTTAAAATAAGATATGTACGCAAAGGAAAACAAAG [XGTACX_site6057]  9.5
59. AAGAATGTTATTAGTACACACAATTATTATAGAAAT [CACACA_site7714]  9.51
60. ACCCATATAATATATACACACATATATATATATATA [CACACA_site4731]  9.52
61. TTATAAGATTTATGTACACACATATACTCACCTCTA [CACACA_site729]  9.53
62. CAAAACAAAACGTATGCACACAATTAAAATATTAAA [CACACA_site5815]  9.54
63. ACAATTTACACTTAAACACACAAAAAAAAGTTATAT [CACACA_site7056]  9.56
64. GAAGAAAAATAAAAAGTGCAAAAAAAGTAAAAATTT [GTGCAC_site9897]  9.57
65. AATGTACAAATACGTACACACATATTTATATTTATA [CACACA_site6833]  9.57
66. TACATATTGATATATACACACAAAAAAATAAATTCT [CACACA_site6198]  9.57
67. TAACTAATATATAAAACACACATCATAAAAATATAA [CACACA_site768]  9.57
68. AATATAAATACTCCTACACACATATATATATATATA [CACACA_site3010]  9.61
69. ATTTTCTTATATATATTTTGTATATATTTTGTACAT [CACACA_negctrl_site1496]  9.64
70. ATAATAAATAAAATAACACACATATATAAATATATA [CACACA_site170]  9.65
71. AATGAATGTAAGAAAATACACACTAGTATAGTAACA [CACACA_site1955]  9.65
72. ATATAAAAAAATTGCACACATAAATAAATACAGATA [CACACA_site4806]  9.66
73. ACATAAGACACAAATACACACAAAAATATGTAACAA [CACACA_site7836]  9.71
74. CATACACCCATACATACACACATACAGATATATATA [CACACA_site5123]  9.74
75. ATATCATTTTCCTGCACACATAAATTTATATAATAT [CACACA_site1048]  9.76
76. ATTTTTATTCAGTTCACACACGCTTTAATATTATAT [CACACA_site3465]  9.77
77. GTATTGCATGAGGACACACACAAAAAAAATATAGAT [CACACA_site6500]  9.79
78. TTCTTATAAATATACACACACAAAATATCTACAATG [CACACA_site6487]  9.82
79. AAAAAAAAAATTAAATGTACACACACCTTAAACAAT [XGTACX_site3848]  9.83
80. AATAATAAAGTGAACACACACATATAACATCTATAT [CACACA_site7868]  9.84
81. AATGTACCCACACCCACACACAAACAAATATATATA [CACACA_site2751]  9.85
82. ACAAATACAAAAAAAGGTACACACATAATATATTTA [XGTACX_site5515]  9.88
83. ATATATATATATAATAAACACACAAATAGATATAAC [CACACA_site9234]  9.9
84. CTACCTTTAATATATACACACACATAAAAAAAATAT [CACACA_site8548]  9.98
85. TATATAAATAGACACACACACACCTTATAATTACTA [CACACA_site7828]  10
86. AGATAAGATATATACACACACATAAATACGTACAAA [CACACA_site6639]  10.1
87. AAAAAAAAAAAACACACACACACATACACATACATA [CACACA_site2858]  10.2
88. TAAAAATTGAAGCACACACACAAAAGAAATACAATA [CACACA_site1113]  10.2
89. TCTCATAGTAGACACACACACACACGCACATATATA [CACACA_site6916]  10.4
